Assay results taken from PMC12136788.
Some of the results follow.

T1: UNK ZnF1-3 (human, UniProt Q9C0B0 31-174)
T1 sequence: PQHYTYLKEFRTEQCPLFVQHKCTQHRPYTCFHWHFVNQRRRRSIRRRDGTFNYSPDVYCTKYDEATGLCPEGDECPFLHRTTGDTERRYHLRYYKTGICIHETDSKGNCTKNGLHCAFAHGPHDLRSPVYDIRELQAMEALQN

B1: chr2:47389482:47389483:-_ENSG00000143933_ENST00000272298|hu_hu|motif|central (ssRNA)
RNA: GGGAGUUCUACAGUCCGACGAUCUUCUGCAGCACUAAUAUAGCCAUUGCCAUCCUUAUCAAACACACGGAAUGCUUCUCGGAUUUCUUCUUCACUGUCUGUGUCUUUCAUUUUUCUUGCCAUCAUUGUCAGAAAUUCAGGGAACAACAGAGGAUUGAGCAUCA
B2: chr6:38652254:38652255:-_ENSG00000124767_ENST00000373365|hu_hu|hu_hu_hu_mus_False|68_108 (ssRNA)
RNA: GGGAGUUCUACAGUCCGACGAUCCGAAAACUUCAUAGCAGGGAAGUCAAGCUUCUGCAGGAGGGUCAUUCCAAGAACCCUCGUAUAAAAAUCCAGGGACUUCUUAGGAUCCUUAAUUCUUAGCAUCGUUUGCUGCAGUAGAAACAACAGAGGAUUGAGCAUCA
B3: chr15:98867917:98867918:+_ENSMUSG00000043091_ENSMUST00000058914|mus_hu|FALSE|FALSE (ssRNA)
RNA: GGGAGUUCUACAGUCCGACGAUCAGGGUCACAUUUCACCAUCUGGUUGGCUGGCUCAAAGCAAGCAUUGGUGAUCUCUGCUACAGUAAGCUGUUCGUGGUAGGCUUUCUCAGCAGAGAUGACAGGGGCAUAUGUGGCCAGAGGCAACAGAGGAUUGAGCAUCA
B4: chr12:42180722:42180723:-_ENSMUSG00000036295_ENSMUST00000043884|mus_hu|mus_mus_mus_hu_True|58_68 (ssRNA)
RNA: GGGAGUUCUACAGUCCGACGAUCCUGUAGGAGAAGAAUCUGUGUGUUAGCUGGCAAUCUGGCUGGGAAGUUUAAAAGCCCUAAAUCAUUACAAUCCACUGUAGAUGCUUCCAUAUAAAUGGAUCUGGGUGUAAACCAAGGCCUCAACAGAGGAUUGAGCAUCA
B5: 100120078_100120198_104_5pUTR_ENSG00000154174_ENST00000284320|human|control|control (ssRNA)
RNA: GGGAGUUCUACAGUCCGACGAUCCCUUUUUCUUUCUUUUCGCCCCGCUGCUGUUCGGGAGAUGGACUUCUGGAGUCCCCGUCGUAGCUGGUGUUGUCCCCUCUACCUUCAGGAAAGAAGGGCAGAUGGCCCUCUUGCCUACUGCAACAGAGGAUUGAGCAUCA
B6: chr3:176767854:176767855:-_ENSG00000177565_ENST00000430069|hu_hu|hu_hu_hu_mus_False|38_38 (ssRNA)
RNA: GGGAGUUCUACAGUCCGACGAUCGACAUCCUUGUUACUGGGCACGUCCUGCCCUCCUUCCCGUAUGCAGUGUCUAAGCACGAGCUGCGUAGGGCCACUGGUGCUGUUCUCACUGAGGUUCCAGAUUCUUGCCGUGGAGUCUCCCAACAGAGGAUUGAGCAUCA
B7: chr1:39494447:39494448:+_ENSG00000168653_ENST00000372967|hu_mus|hu_hu_hu_mus_False|1_28 (ssRNA)
RNA: GGGAGUUCUACAGUCCGACGAUCGCACCGAGCGGCGUUCUUAUAGGGCUGUUCUGCGCUUAGGAACAUAAAGUGCCGGUCCAGGCUGAUGCCCAGCUUUUUCUGUAUGUCCAAGAAAGGCAUGGCUCUGCAGUGCCCCCUUGACAACAGAGGAUUGAGCAUCA
B8: chr12:39763582:39763583:-_ENSG00000139116_ENST00000544797|hu_mus|hu_hu_hu_mus_False|18_108 (ssRNA)
RNA: GGGAGUUCUACAGUCCGACGAUCCUCUAAGAAUUGGGCAUUCACUUUGAAUUCAGGAGGGGGCAGCCCGUUUUUAAUCGCUGAGGUCUUUUUCUCAUCAAUACUCUUGAACAGGUGUUUAACAGCUCGAGAGAUGAUGCCCUGCAACAGAGGAUUGAGCAUCA
B9: chr5:145543945:145543946:-_ENSG00000133706_ENST00000545646|hu_hu|hu_hu_hu_mus_True|78_98 (ssRNA)
RNA: GGGAGUUCUACAGUCCGACGAUCCUGAACGGCCAGUGGCGGGAAAUAAUCAAGCCAAUGUUCUGCUUCAGAAAACUUCACUAUGUCGUCAUCAGAGAGCCCAAGGGAUUUCAUAAUGUCCCACUGGUACUUAGAAGAUCCUGCCAACAGAGGAUUGAGCAUCA
B10: chr9:78015909:78015910:+_ENSMUSG00000009828_ENSMUST00000044551|mus_mus|FALSE|FALSE (ssRNA)
RNA: GGGAGUUCUACAGUCCGACGAUCUAAAUUAUCUUGUAUCCCACUGUCUUAAACUGCACCCUGUCACAAUACUGAAUCAAUAUUAUUACAUAUUUCAAAAUCUGUAUAAAAUAUUACAUGGAACAAUGAACAAAAAAUCACUUACAACAGAGGAUUGAGCAUCA
B11: chr7:3571038:3571039:+_ENSMUSG00000035674_ENSMUST00000076657|mus_mus|motif|central (ssRNA)
RNA: GGGAGUUCUACAGUCCGACGAUCUGGGUAGUUGUAGGGUGUGGCCUUGUUGAUCAUGCUAGCAUACUUGGUGUAGGGGCGGAUCAUGGGCAUAAUUAUAGCGAGGCCCCAGACAGAGAAGGACACCACCAGCACCGGCUCCUUCAACAGAGGAUUGAGCAUCA
B12: chr11:70781491:70781492:-_ENSMUSG00000040667_ENSMUST00000108530|mus_mus|motif|central (ssRNA)
RNA: GGGAGUUCUACAGUCCGACGAUCCUUCCCCCACCUCUGAGGUAAUUCUAAUGCCAUAAGUCCUUUACUUCCGAUAAGUGCGGCAUGAUGUUGGGUUGGACUCAACAAGACUUGAUGGAUUUCAAACAAGGGUGGAUUAAUGCACAACAGAGGAUUGAGCAUCA
B13: chr15:73134924:73134925:-_ENSMUSG00000022607_ENSMUST00000110036|mus_hu|motif|central (ssRNA)
RNA: GGGAGUUCUACAGUCCGACGAUCAUCAAAUCUGUAGACUGGAGACAGGAUCUCAAAGAAUUUCAGAAUACUUUCUUCUCGGUUAAGGUUGGCAAAUUGUCUAAAUGUUUGUUGGAUCAGUUUUCUUAGUGUUUUGGCCUUGACCAACAGAGGAUUGAGCAUCA
B14: 35972796_35972916_658_3pUTR_ENSMUSG00000001525_ENSMUST00000001566|mouse|control|control (ssRNA)
RNA: GGGAGUUCUACAGUCCGACGAUCGAUCUUGCUGAUGAGCAGGGUGCCCAUGCCAGAGCCAGUGCCUCCACCCAGUGAGUGGGUCAGCUGAAAGCCUUGCAGGCAAUCACAGCUCUCCGCCUCCUUCCGCACCACAUCCAAGACCAACAGAGGAUUGAGCAUCA
B15: chr3:95127578:95127579:-_ENSMUSG00000015697_ENSMUST00000107170|mus_mus|FALSE|FALSE (ssRNA)
RNA: GGGAGUUCUACAGUCCGACGAUCGGUUAUGUAACAUUUUUAGUUAAAAAUUACACAGGGCAAAUAAAAUCGAGGUAUAAACUAAUGAUAGUUGCCCACUGGGAAAUGACAUGGAAGAUCAAGGCAGGAGAUAAGACAAACCACCAACAGAGGAUUGAGCAUCA
B16: chr2:109738910:109738911:+_ENSMUSG00000027162_ENSMUST00000028583|mus_hu|FALSE|FALSE (ssRNA)
RNA: GGGAGUUCUACAGUCCGACGAUCUUGAAAACUGGAAUAAUCAUCUGAGACUCACAGUGAUCACAAACAUGCAGAAAAAAGCAUACAAUUCUAUUCUUCCUGAAGGAAUGUUACAAAAUGCCCACUUUUUUAUAUAGGGUCAAUCAACAGAGGAUUGAGCAUCA
B17: chr16:94664741:94664742:+_ENSMUSG00000040785_ENSMUST00000117648|mus_hu|mus_mus_mus_hu_False|1_88 (ssRNA)
RNA: GGGAGUUCUACAGUCCGACGAUCUGGUACUGAUCUUGGUAGCUGAUACUCAGAAGAAAGGCUGGCCAAGGGUGUAUAUAUGCUGGUGUACUGGGGCAAACCUGGUAACACGUUUAUGUAUGCUGGCGGUGUCUGGGUGCCAAACAACAGAGGAUUGAGCAUCA
B18: chr6:13820011:13820012:-_ENSMUSG00000052419_ENSMUST00000155856|mus_mus|motif|central (ssRNA)
RNA: GGGAGUUCUACAGUCCGACGAUCGUUUAGUACAUUUUUAUUAAACUUUUUCUCAGAGAUAAAAGUUUUUGGCUAAGAUCGGAGUACAAUAUCAACUUGCGAGAUAAAAACAGAAGCAUUAAAAAAAAAGAAAACCAGUAACAACAACAGAGGAUUGAGCAUCA
B19: chr9:78326885:78326886:-_ENSMUSG00000037742_ENSMUST00000042235|mus_hu|FALSE|FALSE (ssRNA)
RNA: GGGAGUUCUACAGUCCGACGAUCCAGCUUUUUACCAGAACGGCGAUCAAUCUUUUCCUUCAGCUCAGCAAACUUGCAUGCAAUGUGAGCCGUGUGGCAAUCCAAUACAGGGGCAUAGCCGGCGCUUAUUUGGCCUGGAUGGUUCAACAGAGGAUUGAGCAUCA
B20: 27733538_27733658_2797_3pUTR_ENSG00000158195_ENST00000430629|human|control|control (ssRNA)
RNA: GGGAGUUCUACAGUCCGACGAUCAAGAAUGACAAGAGAGGCUAUGAAGGUCUGAGCAGCACCGACAGGGCUGGCACAGACCCUGAGCCUUCCUACUGGGACCCCAACCUAUGGUGAGGUCUGGAGUAGCAAUACAACUGAGAACAACAGAGGAUUGAGCAUCA
B21: chr5:71494580:71494581:+_ENSG00000131711_ENST00000296755|hu_mus|FALSE|FALSE (ssRNA)
RNA: GGGAGUUCUACAGUCCGACGAUCAGAGGAGGCUUGGUGAGCUGCUGCAGUCUCUUUAGCUGCAGAGGUAGAAUCUGAAAAGCCAGGUGAAUAUAAAGGUGAGGACUCUCGUGGGGUGAGUGGAGAAAUAUCAGAUUUCGGAGACAACAGAGGAUUGAGCAUCA
B22: 40065941_40068717_428_CDS_ENSG00000131473_ENST00000352035|human|control|control (ssRNA)
RNA: GGGAGUUCUACAGUCCGACGAUCGAACUCCUCAGCCUGACUGUGGGGGACGAAGGGCUCGAUCAGAAAGUUCUUGAGGAAGCCUGUGGCCUUGCCAACUGUGGCUUCCUGUCCCAGCCGUGGCUUCAGCCAGGACUUGACCCCCAACAGAGGAUUGAGCAUCA

Target: T1, UNK ZnF1-3
Experiment: nsRBNS (natural sequence RNA bind-n-seq); RBNS binding buffer (assumed for nsRBNS): 25 mM Tris pH 7.5, 150 mM KCl, 3 mM MgCl2, 0.01% Triton X-100, 500 ug/ml BSA, 20 U/ml SUPERase-In, 4 C; UNK is unkempt and MSI1 is Musashi-1; names of the RNAs are library labels; protein concentration not given here; high values mean tight binding

Binder	binding signal [enrichment R]
B1	0.652
B2	0.583
B3	0.819
B4	1.18
B5	0.636
B6	0.503
B7	0.804
B8	1.6
B9	1.37
B10	2.04
B11	1.16
B12	1.03
B13	1.56
B14	1.38
B15	1.13
B16	0.758
B17	0.988
B18	1.23
B19	0.781
B20	0.383
B21	2.2
B22	0.297
